No constants are given. Whether binding was seen depends on the method and setting. In cells and extracts the contact can be indirect. Some binding calls cover weakened binding; strength is not graded here. Where a sequence is shown, tags or fusion partners need not be part of it.
T1: Flag-tagged human CARD9, wild type (human) (UniProt Q9H257)
T1 sequence: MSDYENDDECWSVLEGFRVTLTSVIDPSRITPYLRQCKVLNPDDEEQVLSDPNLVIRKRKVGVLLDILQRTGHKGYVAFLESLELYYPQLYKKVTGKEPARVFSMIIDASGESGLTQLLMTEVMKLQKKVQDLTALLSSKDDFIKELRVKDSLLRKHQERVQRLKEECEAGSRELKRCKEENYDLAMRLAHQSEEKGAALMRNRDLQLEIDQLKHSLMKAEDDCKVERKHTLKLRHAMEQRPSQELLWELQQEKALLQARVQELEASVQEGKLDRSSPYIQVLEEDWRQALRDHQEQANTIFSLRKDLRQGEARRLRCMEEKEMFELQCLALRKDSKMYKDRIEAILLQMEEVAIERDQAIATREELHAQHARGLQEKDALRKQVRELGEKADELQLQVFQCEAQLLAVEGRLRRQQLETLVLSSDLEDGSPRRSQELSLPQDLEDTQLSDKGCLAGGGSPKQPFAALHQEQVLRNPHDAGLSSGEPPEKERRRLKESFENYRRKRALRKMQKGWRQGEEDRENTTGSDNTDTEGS

The chains behind the UniProt entries cited, without tags or fusion partners.
UniProt Q9UDY8: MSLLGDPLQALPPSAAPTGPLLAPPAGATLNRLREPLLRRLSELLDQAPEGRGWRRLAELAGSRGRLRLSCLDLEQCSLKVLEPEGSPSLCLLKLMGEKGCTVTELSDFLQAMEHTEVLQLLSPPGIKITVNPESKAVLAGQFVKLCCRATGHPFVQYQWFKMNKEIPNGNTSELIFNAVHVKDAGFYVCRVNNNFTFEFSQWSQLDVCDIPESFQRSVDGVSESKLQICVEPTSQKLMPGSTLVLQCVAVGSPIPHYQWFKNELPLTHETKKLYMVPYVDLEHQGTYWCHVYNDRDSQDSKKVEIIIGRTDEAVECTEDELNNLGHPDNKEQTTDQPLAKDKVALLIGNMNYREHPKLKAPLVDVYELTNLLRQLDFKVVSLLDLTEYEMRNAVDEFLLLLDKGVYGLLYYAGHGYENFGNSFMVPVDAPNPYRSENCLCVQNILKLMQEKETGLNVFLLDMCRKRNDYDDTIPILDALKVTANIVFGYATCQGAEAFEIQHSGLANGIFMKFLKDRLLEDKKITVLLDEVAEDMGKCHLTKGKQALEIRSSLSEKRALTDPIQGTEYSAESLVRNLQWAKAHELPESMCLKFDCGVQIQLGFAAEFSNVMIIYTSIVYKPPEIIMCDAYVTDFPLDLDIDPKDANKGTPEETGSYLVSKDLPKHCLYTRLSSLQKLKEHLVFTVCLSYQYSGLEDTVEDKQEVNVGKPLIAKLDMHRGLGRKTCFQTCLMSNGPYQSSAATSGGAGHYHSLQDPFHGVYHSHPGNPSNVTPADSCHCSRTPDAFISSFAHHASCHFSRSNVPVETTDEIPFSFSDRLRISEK

T2: Flag-tagged human CARD9 L213LI (gain-of-function mutant) (human) (UniProt Q9H257)
T2 sequence: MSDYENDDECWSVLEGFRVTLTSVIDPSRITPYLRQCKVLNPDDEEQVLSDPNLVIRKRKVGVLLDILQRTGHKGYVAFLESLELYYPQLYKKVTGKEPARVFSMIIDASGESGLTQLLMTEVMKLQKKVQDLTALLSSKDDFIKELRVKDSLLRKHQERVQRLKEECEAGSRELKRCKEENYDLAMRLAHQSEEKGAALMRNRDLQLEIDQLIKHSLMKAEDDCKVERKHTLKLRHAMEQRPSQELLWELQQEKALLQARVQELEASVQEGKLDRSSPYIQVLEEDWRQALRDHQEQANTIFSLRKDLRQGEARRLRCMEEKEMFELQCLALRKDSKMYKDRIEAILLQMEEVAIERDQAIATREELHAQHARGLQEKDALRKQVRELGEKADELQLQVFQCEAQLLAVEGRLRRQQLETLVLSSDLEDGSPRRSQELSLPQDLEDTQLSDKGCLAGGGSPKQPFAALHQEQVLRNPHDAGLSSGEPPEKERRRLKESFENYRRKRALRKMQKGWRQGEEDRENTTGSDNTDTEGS

T3: Flag-tagged human CARD9 R70W (human) (UniProt Q9H257)
T3 sequence: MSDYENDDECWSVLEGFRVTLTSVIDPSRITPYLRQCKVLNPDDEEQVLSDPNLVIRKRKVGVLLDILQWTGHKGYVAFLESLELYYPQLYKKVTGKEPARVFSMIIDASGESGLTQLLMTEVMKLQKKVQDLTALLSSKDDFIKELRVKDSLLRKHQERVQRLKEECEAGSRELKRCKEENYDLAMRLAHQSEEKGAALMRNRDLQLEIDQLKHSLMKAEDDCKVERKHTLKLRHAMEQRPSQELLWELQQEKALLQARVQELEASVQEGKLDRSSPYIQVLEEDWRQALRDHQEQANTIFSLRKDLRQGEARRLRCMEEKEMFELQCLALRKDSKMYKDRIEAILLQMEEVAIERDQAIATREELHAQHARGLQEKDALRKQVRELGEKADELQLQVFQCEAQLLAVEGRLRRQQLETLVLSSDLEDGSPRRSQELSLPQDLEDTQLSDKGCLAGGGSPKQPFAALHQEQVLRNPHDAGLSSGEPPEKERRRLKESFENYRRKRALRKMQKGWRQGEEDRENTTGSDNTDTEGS

T4: Flag-tagged human CARD9 R70W/L213LI double mutant (human) (UniProt Q9H257)
T4 sequence: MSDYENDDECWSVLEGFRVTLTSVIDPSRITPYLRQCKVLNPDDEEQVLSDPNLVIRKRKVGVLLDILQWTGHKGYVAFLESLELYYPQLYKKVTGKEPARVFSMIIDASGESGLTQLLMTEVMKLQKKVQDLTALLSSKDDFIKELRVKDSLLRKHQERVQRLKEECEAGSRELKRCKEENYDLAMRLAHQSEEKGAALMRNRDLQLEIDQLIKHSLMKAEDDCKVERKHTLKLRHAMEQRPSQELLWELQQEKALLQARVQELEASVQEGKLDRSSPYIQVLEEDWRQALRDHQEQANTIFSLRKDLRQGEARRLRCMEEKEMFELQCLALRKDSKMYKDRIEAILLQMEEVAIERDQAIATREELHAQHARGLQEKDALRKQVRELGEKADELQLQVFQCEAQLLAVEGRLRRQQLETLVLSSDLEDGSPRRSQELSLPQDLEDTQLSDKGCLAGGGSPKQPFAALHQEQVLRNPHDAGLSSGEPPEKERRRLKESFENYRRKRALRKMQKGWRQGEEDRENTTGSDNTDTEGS

T5: Flag-tagged human CARD9, wild type (human), Q9H257
T5 chain: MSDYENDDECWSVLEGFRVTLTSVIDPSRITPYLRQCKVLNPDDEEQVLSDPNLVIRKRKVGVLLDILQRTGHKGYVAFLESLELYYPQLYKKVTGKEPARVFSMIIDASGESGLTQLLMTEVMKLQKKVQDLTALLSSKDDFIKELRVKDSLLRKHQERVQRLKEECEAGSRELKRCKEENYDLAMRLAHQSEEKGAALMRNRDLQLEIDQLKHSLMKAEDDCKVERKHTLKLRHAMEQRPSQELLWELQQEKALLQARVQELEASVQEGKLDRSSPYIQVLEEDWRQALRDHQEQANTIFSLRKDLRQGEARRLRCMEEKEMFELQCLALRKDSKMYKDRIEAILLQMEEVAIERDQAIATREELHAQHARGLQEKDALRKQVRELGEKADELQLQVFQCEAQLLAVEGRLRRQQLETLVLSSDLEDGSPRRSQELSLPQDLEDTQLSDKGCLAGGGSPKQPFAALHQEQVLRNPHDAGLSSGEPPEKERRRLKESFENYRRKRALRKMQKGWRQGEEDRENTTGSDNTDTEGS


What was measured:
[1] = target: T1, Flag-tagged human CARD9, wild type (human); test: co-IP; as the unstimulated co-IP, but transfected HEK293T cells treated with 200 ng/ml PMA for 30 minutes before lysis and anti-Flag immunoprecipitation
[2] = target: T2, Flag-tagged human CARD9 L213LI (gain-of-function mutant) (human); test: co-IP; unstimulated HEK293T co-transfected with MALT1, E-tagged BCL10 and a Flag-tagged CARD9 construct; CARD9 precipitated with anti-Flag antibody and protein G magnetic Dynabeads in IP buffer (25 mM HEPES pH 7.5, 150 mM NaCl, 0.2% NP-40, 10% glycerol); BCL10 detected by anti-E-tag, MALT1 by anti-MALT1
[3] = target: T3, Flag-tagged human CARD9 R70W (human); test: as above
[4] = target: T4, Flag-tagged human CARD9 R70W/L213LI double mutant (human); test: as above
[5] = target: T1, Flag-tagged human CARD9, wild type (human); test: condition: only without upstream activation (no PMA); co-IP; unstimulated HEK293T co-transfected with MALT1, E-tagged BCL10 and a Flag-tagged CARD9 construct; CARD9 precipitated with anti-Flag antibody and protein G magnetic Dynabeads in IP buffer (25 mM HEPES pH 7.5, 150 mM NaCl, 0.2% NP-40, 10% glycerol); BCL10 detected by anti-E-tag, MALT1 by anti-MALT1
[6] = target: T5, Flag-tagged human CARD9, wild type …; test: co-IP; as the unstimulated co-IP, but transfected HEK293T cells treated with 200 ng/ml PMA for 30 minutes before lysis and anti-Flag immunoprecipitation; conditions: remark: other sources report otherwise

Row | binding [1] | binding [2] | binding [3] | binding [4] | binding [5] | binding [6] | Molecule
1 | binds | binds | no binding | no binding | no binding | – | human MALT1 (from UniProt Q9UDY8 1-824)
2 | – | – | – | – | – | binds | E-tagged human BCL10, O95999 1-233 (protein) MEPTAPSLTEEDLTEVKKDALENLRVYLCEKIIAERHFDHLRAKKILSREDTEEISCRTSSRKRAGKLLDYLQENPKGLDTLVESIRREKTQNFLIQKITDEVLKLRNIKLEHLKGLKCSSCEPFPDGATNNLSRSNSDESNFSEKLRASTVMYHPEGESSTTPFFSTNSSLNLPVLEVGRTENTIFSSTTLPRPGDPGAPPLPPDLQLEEEGTCANSSEMFLPLRSRTVSRQ
3 | – | binds | no binding | no binding | no binding | – | E-tagged human BCL10 (protein, UniProt O95999 1-233) MEPTAPSLTEEDLTEVKKDALENLRVYLCEKIIAERHFDHLRAKKILSREDTEEISCRTSSRKRAGKLLDYLQENPKGLDTLVESIRREKTQNFLIQKITDEVLKLRNIKLEHLKGLKCSSCEPFPDGATNNLSRSNSDESNFSEKLRASTVMYHPEGESSTTPFFSTNSSLNLPVLEVGRTENTIFSSTTLPRPGDPGAPPLPPDLQLEEEGTCANSSEMFLPLRSRTVSRQ

Reference: PMC6220056
